In this assay the test system is mPer2Luc MEF. Description: PER2::LUC luminescence relative to vehicle control (fold of vehicle); higher = higher PER2::LUC reporter signal. The following applies: 10 µM. A digest of the protocol:
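The reported values are PER2::LUC luminescence as fold of vehicle control in mouse embryonic fibroblasts carrying the mPer2Luc reporter. Cells were seeded at ~3000 per well in 384-well plates in DMEM with 10% FBS at 37 °C and 5% CO2, and compounds were added at 10 μM 48 h later. ONE-Glo luminescence was read 24 h and 30 h after treatment.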

Values joined by “and” are separate entries in the source; they are usually repeats but may differ in a detail not shown here. Equal entries are not always repeated. In all, about 5,300 compounds were measured (“PER2::LUC luminescence relative to vehicle control”: median about 0.96, highest 2% from about 1.3 on). The list shows a part of the results.

On to `CC(=Cc1ccc(C(=O)O)cc1)c1ccc2c(c1)C(C)(C)CCC2(C)C`, for which the “PER2::LUC luminescence” value runs as follows: (time after treatment 24 h) 1.66; (time after treatment 30 h) 1.52.
`O=C(O)CCCCCCCC(=O)O`: the “PER2::LUC luminescence” value (time after treatment 24 h) turned out to be 1.07 and the “PER2::LUC luminescence” value (time after treatment 30 h) was 0.991.
For `CC(=O)O[C@@H]1C[C@H]2C(C)(C)C(=O)CC[C@]2(C)[C@H]2CC[C@@]3(C)[C@H](c4ccoc4)OC(=O)[C@H]4O[C@]43[C@@]21C` the same measures were 0.892 and 0.996.
On to `CC(=O)OCC(=O)[C@@]1(O)CC[C@H]2[C@@H]3CCC4=CC(=O)CC[C@]4(C)[C@@]3(F)[C@@H](O)C[C@@]21C`, for which the “PER2::LUC luminescence” value is, setting by setting: (time after treatment 24 h) 0.699; (time after treatment 30 h) 1.2.
In the same order, the values of `CC12CCC3C(CC3(C)C)C(C)(CCC1=O)O2` (centres undefined) are 0.975 and 0.921.
For `NC1(C(=O)O)CCCCC1` the same measures were 1.16 and 1.01.
For `C=C1CC[C@H](O)C/C1=C/C=C1\CCC[C@]2(C)[C@@H]([C@H](C)CCCC(C)C)CC[C@@H]12`, the “PER2::LUC luminescence” value runs as follows: (time after treatment 24 h) 0.85; (time after treatment 30 h) 0.826.
As for `Cc1nccnc1N1CCCCC1`, the “PER2::LUC luminescence” value (time after treatment 24 h) stood at 0.992 and the “PER2::LUC luminescence” value (time after treatment 30 h) is 0.888.
As for `CC(C)(O)[C@H]1CC[C@@](C)([C@H]2[C@@H](O)C[C@@]3(C)[C@@H]4C[C@H](O[C@@H]5O[C@H](CO)[C@@H](O)[C@H](O)[C@H]5O)[C@H]5C(C)(C)[C@@H](O[C@@H]6OC[C@@H](O)[C@H](O)[C@H]6O)CC[C@@]56C[C@@]46CC[C@]23C)O1`, the “PER2::LUC luminescence” value (time after treatment 24 h) was determined as 0.992 and the “PER2::LUC luminescence” value (time after treatment 30 h) was found to be 0.908.
As to `NNCCc1ccccc1`, the “PER2::LUC luminescence” value by setting is: (time after treatment 24 h) 1.14 and 0.964; (time after treatment 30 h) 1.25 and 1.18.
Consider `CCCc1cc(C(N)=S)ccn1`, for which the “PER2::LUC luminescence” value amounted to 1.13 (time after treatment 24 h) and 1.15 (time after treatment 30 h).
As to `FC(F)(F)c1ccc(CNc2ccc(Cc3c[nH]c4ncccc34)cn2)cc1`, the “PER2::LUC luminescence” value (time after treatment 24 h) is 0.637 and the “PER2::LUC luminescence” value (time after treatment 30 h) was 0.617.
For the compound `CC(C)(C)NCC(O)COc1cccc2[nH]c(=O)[nH]c12` (racemic), the “PER2::LUC luminescence” value turned out to be 0.854 (time after treatment 24 h) and 0.872 (time after treatment 30 h).
On to `COc1cccc2c1c(O)c(C(=O)N(C)c1ccc(C(F)(F)F)cc1)c(=O)n2C`, for which the “PER2::LUC luminescence” value came out at 1.06 (time after treatment 24 h) and 1.01 (time after treatment 30 h).
As for `CC(=O)S[C@@H]1CC2=CC(=O)CC[C@]2(C)[C@H]2CC[C@@]3(C)[C@@H](CC[C@@]34CCC(=O)O4)[C@H]12`, the “PER2::LUC luminescence” value is 0.924 and 0.815 (time after treatment 24 h); 0.856 and 0.951 (time after treatment 30 h).
`C#Cc1cccc(Nc2ncnc3cc(OC)c(OCCCCCCC(=O)NO)cc23)c1`: the “PER2::LUC luminescence” value runs as follows: (time after treatment 24 h) 0.646; (time after treatment 30 h) 0.861.
For the compound `O=C(O)[C@]1(Cc2cccc(Nc3nccs3)n2)CC[C@@H](Oc2cccc(Cl)c2F)CC1`, the “PER2::LUC luminescence” value is, setting by setting: (time after treatment 24 h) 1.08; (time after treatment 30 h) 0.989.
Regarding `CC(Cc1cccc(C(F)(F)F)c1)NCCOC(=O)c1ccccc1` (centres undefined), the “PER2::LUC luminescence” value is 0.875 and 0.768 (time after treatment 24 h); 0.831 and 0.796 (time after treatment 30 h).
`O=c1[nH]nc2c3c(cccc13)N=C(CN1Cc3ccccc3C1)N2`: the “PER2::LUC luminescence” value by setting is: (time after treatment 24 h) 0.939; (time after treatment 30 h) 0.807.
In the same order, the values of `COc1cc2c(NC3CCN(C(C)C)CC3)nc(C3CCCCC3)nc2cc1OCCCN1CCCC1` are 0.316 and 0.299.
For `COc1cc2c(Nc3ccc(NC(=O)c4ccccc4)cc3)ncnc2cc1OCCCN1CCOCC1` the same measures were 0.801 and 0.763.
`COc1ccc(CNc2nc(NCc3ccc(OC)cc3)c3ncn(C(C)C)c3n2)cc1`: the “PER2::LUC luminescence” value by setting is: (time after treatment 24 h) 0.991; (time after treatment 30 h) 1.22.

For the origin of these results see the supplement of paper PMC9334596.
